# Source: the supplement of paper PMC3334620
# Whole data set: some 33,000 sequences, median “E-score (-0.5 to 0.5)” near -0.032, cut for the highest 2% near 0.36. The list shows a part of the results.
# Molecular target: T1, Sko1 (UniProt Q02100)
# T1 sequence: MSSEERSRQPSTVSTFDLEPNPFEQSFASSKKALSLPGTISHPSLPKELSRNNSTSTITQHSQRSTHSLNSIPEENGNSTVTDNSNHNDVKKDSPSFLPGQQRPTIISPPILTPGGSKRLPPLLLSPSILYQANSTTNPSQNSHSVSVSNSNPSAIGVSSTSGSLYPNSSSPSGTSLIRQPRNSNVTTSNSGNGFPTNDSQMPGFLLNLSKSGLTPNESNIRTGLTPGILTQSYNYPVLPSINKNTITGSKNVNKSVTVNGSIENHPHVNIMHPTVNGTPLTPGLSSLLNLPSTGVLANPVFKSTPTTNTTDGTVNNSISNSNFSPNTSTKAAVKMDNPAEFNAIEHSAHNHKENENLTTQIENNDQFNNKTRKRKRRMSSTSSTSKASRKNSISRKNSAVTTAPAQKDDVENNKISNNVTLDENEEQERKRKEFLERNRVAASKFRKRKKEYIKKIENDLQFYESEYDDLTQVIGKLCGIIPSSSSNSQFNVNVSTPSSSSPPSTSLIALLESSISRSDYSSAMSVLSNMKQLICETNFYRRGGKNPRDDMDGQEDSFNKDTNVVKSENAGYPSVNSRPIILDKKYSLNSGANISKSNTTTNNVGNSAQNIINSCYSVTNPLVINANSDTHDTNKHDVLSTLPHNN
# Experiment: PBM E-score (8-mer binding enrichment) (E-score (-0.5 to 0.5)); higher = stronger / more preferred TF binding; most listed sequences are background and not binding sites
# Details: protein concentration: 200 nM; construct: GST-full length
# Method: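 Universal 'all 10-mer' protein binding microarrays (Agilent AMADID 015681) probed with GST-tagged S. cerevisiae TFs (full-length or DBD) made by in vitro transcription/translation (PURExpress), about 100-200 nM. Bound TF was detected with fluorescent anti-GST. Each ungapped 8-mer (which stands for itself and its reverse complement) is scored by the PBM enrichment score (E-score), a modified Wilcoxon-Mann-Whitney statistic from -0.5 to +0.5, computed with the Universal PBM Analysis Suite. Scale: above 0.35 generally sequence-specific binding.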
row,Sequence,PBM E-score
1,GAGAAGGA,-0.155
2,ATATCCTA,0.0515
3,ACGTGCGG,0.308
4,CTCTTCTA,-0.00289
5,GGATTTAC,0.237
6,CCCCACGG,-0.22
7,GAATCTCA,-0.195
8,GAAGGTAA,0.0069
9,CTCAGATC,-0.148
10,ACGCCGTC,0.192
11,ACTAATGC,0.0674
12,AAGAACTG,-0.141
13,AGCCTGAT,0.025
14,ATACGCAC,0.389
15,ATCGTCCA,-0.0889
16,GGCGTCGA,0.0241
17,CCGACCTC,-0.312
18,TGTGGGAA,-0.00802
19,CTCAGACA,-0.0764
20,AATCATTG,0.11
21,CTTTAGAC,0.0705
22,GTCTATTA,0.0729
23,CGTGGTTC,0.0129
24,CACCCGTG,-0.293
25,AATTCCCC,-0.198

row,Sequence,PBM E-score
1,TCCTGTCA,-0.0412
2,CTAGGAAG,-0.133
3,ACTGCCCC,-0.306
4,AAGTTCGC,0.152
5,AAGTACAT,0.237
6,GGAATGAA,0.0115
7,TCAGTAGA,0.075
8,AGGCCTAG,-0.108
9,AACCCTAT,0.0535
10,AGTTCAAA,0.0351
11,CAGAATAA,0.2
12,ATAAATAG,0.163
13,CTGCAGAC,-0.19
14,GCATTATA,0.00078
15,GCTCAATA,-0.0186
16,CCAGATAC,0.0297
17,GGTGCGAC,-0.126
18,CAATCTAC,-0.0423
19,CTGAGTAC,-0.0323
20,GCTCGGCA,-0.196
21,CGTCTAAA,-0.0104
22,CCGGCATA,-0.155
23,AACAATGC,0.167
24,TCTCCACA,-0.0125
25,CAGAGGCC,-0.216

row,Sequence,PBM E-score
1,CACTGCGG,-0.0295
2,GTATGGAC,0.0458
3,GCGCACGA,0.0675
4,GGATATCA,-0.0424
5,AAGACCCT,-0.143
6,AAGGACCC,-0.152
7,ACGAGATA,0.207
8,GAAAATCC,-0.00172
9,AACTCCCC,-0.164
10,TCTACTCA,0.151
11,CCTATTCA,-0.286
12,CCGTAATC,0.111
13,CACTTGGC,-0.0585
14,CCGTCGTA,0.11
15,CCTTAGAG,-0.379
16,CGAACTCG,-0.106
17,AGGCGATG,-0.143
18,GAGAGGAC,-0.0889
19,CCTCAGCA,-0.301
20,ACTCGCAG,-0.203
21,GAACTGTC,-0.209
22,TTATAAAA,0.212
23,AACTCCCA,-0.227
24,ACACCTTG,0.00022
25,AGGCCTAA,-0.0496

row,Sequence,PBM E-score
1,ATAATATG,0.221
2,CCCCTGTC,-0.35
3,CCGTTTTC,0.0601
4,ACCTTGTA,0.0904
5,GATCCCTA,-0.212
6,GTCGGTGA,0.049
7,CACGAAAA,0.222
8,CAAAACTA,0.121
9,AAGCTGCC,-0.177
10,AATCCTCA,-0.012
11,GGATCGAA,-0.0912
12,AAATAGCG,0.0959
13,CAACCGTA,0.0183
14,CGCTATCA,-0.0117
15,GACGCACC,0.203
16,CCGAGAAC,-0.0868
17,ACGCTGCA,0.066
18,AAGCTCAT,-0.0568
19,CCTCACCC,-0.148
20,GCTCTCAC,-0.236
21,AGGATCCA,-0.155
22,AACCTCTT,-0.0138
23,AACGCTAC,0.0935
24,GCAAATCA,0.108
25,ATATCGTC,0.316

row,Sequence,PBM E-score
1,AAGTCCGC,-0.223
2,CTCCGCTA,-0.292
3,CGCCTGCC,-0.299
4,GCTACCGA,-0.122
5,ACAGAACG,-0.0253
6,AGGTCCGG,-0.203
7,GAAAGTTC,-0.0105
8,GATCGAAA,-0.0275
9,AAGAGTTC,-0.199
10,GAAGATTC,-0.0232
11,TCCTTCGA,-0.0512
12,ATAAGGTA,-0.00808
13,CCGCCTAA,-0.188
14,GCTGCCGA,-0.321
15,GTACTCTA,0.0677
16,CTTTCGCC,-0.178
17,GAACACTC,-0.0501
18,ACAACGCT,0.0194
19,AGTAGGTA,0.0816
20,AGACAAGA,0.0367
21,TAACACAA,0.133
22,CGGTAGAC,-0.0418
23,AATTGCGA,0.0547
24,AACGTCCT,0.0619
25,AATATCAA,0.0394

row,Sequence,PBM E-score
1,AGCTTGGA,-0.316
2,ACAGGTCC,-0.357
3,AGATCTTC,-0.00945
4,ATTGCTGA,0.104
5,GATAGAAC,0.166
6,ATCCGGAC,-0.118
7,CTCGAGCC,0.0866
8,AAGAACGC,0.0981
9,ATTGGTTG,-0.0115
10,CTGTAATA,0.042
11,ATAAAAAT,0.188
12,CCCGGGGA,-0.257
13,CCCCATTA,-0.211
14,ATTTACAC,0.132
15,GAATGTAC,0.0361
16,CCGGCCAG,-0.158
17,GGATCAAC,0.0572
18,CAATGTAC,-0.0145
19,ATACTAGC,-0.0465
20,GATGACTA,0.0669
21,ATTAGGAA,0.0293
22,AACGTTAA,0.243
23,AGCGGACT,-0.273
24,CGGCTAAC,-0.0414
25,GATTTCCC,-0.0614

row,Sequence,PBM E-score
1,GATTGCAC,0.0147
2,CGAATTGA,0.079
3,TGTGAAAA,0.12
4,ACATATAG,0.121
5,AAGGAACT,-0.262
6,CTCCACCC,-0.261
7,GATAGATA,0.108
8,GATCAGGA,-0.275
9,AAGATGGT,0.00653
10,ACAGGACT,-0.0484
11,ACGTAAAG,0.461
12,CCTCTGCG,-0.251
13,AGTATTGA,0.16
14,AAACGACA,0.217
15,ACGCGTCG,0.237
16,CGATTTTC,0.23
17,CGCGTGTA,0.227
18,TCTGTACA,0.0232
19,CCTAGTCC,-0.26
20,AGATCTGA,-0.0388
21,AAGGCGGG,-0.098
22,CTCAGCCC,-0.249
